From a compilation of properties of binary mixtures (doi:10.1016/j.molliq.2022.118677)
The densities may have been worked out from excess volumes.

Experiment: xn = mol fraction of the nth substance listed
Details: 100 kPa, x2 = 0.5

Compound | mass density (293.15 K) | mass density (303.15 K) | mass density (313.15 K) | mass density (323.15 K) | mass density (333.15 K) | mass density (343.15 K) | mass density (353.15 K)
CCCCCCCCn1cc[n+](C)c1C.F[P-](F)(F)(F)(F)F + CCCCCCCC[n+]1ccn(C)c1.F[P-](F)(F)(F)(F)F | 1170.4 kg/m3 | 1163 kg/m3 | 1156 kg/m3 | 1148.4 kg/m3 |  |  | 
CCCCCCCC[n+]1ccn(C)c1C.F[B-](F)(F)F + CCCCCCCC[n+]1ccn(C)c1.F[P-](F)(F)(F)(F)F | 1238.8 kg/m3 | 1232.4 kg/m3 | 1223.9 kg/m3 | 1216.5 kg/m3 | 1209.6 kg/m3 | 1202.8 kg/m3 | 1195.2 kg/m3
